# PubChem BioAssay AID686979 (National Center for Advancing Translational Sciences (NCATS), 2013)
# Among all 420,000 compounds or so, about 50,000 (12%) were called active. This list was built around the results that the source calls inconclusive (neither active nor inactive); the mix of calls is not that of the screen. Calls come from the whole dose curve; as a rule, active = well fitted inhibition curve with a large enough effect; inconclusive = small, poorly fitted or top-dose-only effect; inactive = flat fitted curve, though single readings scatter. Potencies of inconclusive entries are left out as doubtful fits.
# Assay: qHTS for Inhibitors of human tyrosyl-DNA phosphodiesterase 1 (TDP1): qHTS in cells in presence of CPT; note: nearly all actives have a fitted effect of over 55% in size
# Details: chicken DT40 Tdp1-/-;hTDP1 cells + 20 nM CPT, ATP luminescence, 48 h; activity change, negative = growth inhibition: at 46.2 µM (top of the series)
# How it was run: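 Chicken DT40 Tdp1-/- cells complemented with human TDP1, 400 cells/well, exposed to compounds plus 20 nM camptothecin for at least 48 h at 37 C; viability read as ATP content by CellTiter-Glo luminescence.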
# % is set by controls: 0 for no effect and ±100 for the full control effect; potency is the fitted concentration of half-maximal effect; tags give direction and shape of the fitted curve.
Structure (SMILES),"activity change, negative = growth inhibition",Potency
CCN(C[C@H]1N[C@@](C)(C(=O)OC)[C@H]2C(=O)N(C)C(=O)[C@@H]12)S(=O)(=O)c1ccc(OC)cc1,inactive: -4.18%,
COc1cc(/C=C/C(=O)Nc2cc(C(F)(F)F)ccc2Cl)cc(OC)c1OC,,"inconclusive [inhibitor, single point]"
CC(=O)Oc1cccc(O)c1,,"inconclusive [inhibitor, full curve, poor fit]"
COc1ccc(-c2onc(C)c2C)cc1S(=O)(=O)N(C)Cc1ccco1,,"inconclusive [inhibitor, single point]"
COc1ccc(S(=O)(=O)N2CCCCC2)cc1NC(=O)CN1CCN(C(C)=O)CC1,,"inconclusive [inhibitor, single point]"
Cc1ccc2ccccc2c1C(O)c1ncc(-c2cccc(F)c2)[nH]1 (configuration not stated),,"inconclusive [inhibitor, single point]"
CCOC(=O)C1CCC(CN(Cc2ccc(Cl)cc2)S(=O)(=O)c2ccc(Br)cc2)CC1 (configuration not stated),,"inconclusive [inhibitor, single point]"
O=C(C1CCN(S(=O)(=O)c2ccc(Br)s2)CC1)N1CCc2ccccc21,,"inconclusive [inhibitor, single point]"
CCOc1ccc(-c2nnc(SCC(=O)NC(C)(C)C)nc2-c2ccc(OCC)c(OC)c2)cc1OC,,"inconclusive [inhibitor, single point]"
CC(C(=O)NCCN1CCOCC1)(c1ccccc1)c1ccccc1,inactive: 14.4%,
O=C(O)c1ccc2c(c1)S(=O)(=O)c1cc(N3CCN(c4cnccn4)CC3)ccc1C2=O,inactive: -2.74%,
COc1ccc(Br)cc1/C=N/NC(=O)c1nc(-c2ccccc2)n2c1CCCCC2,,"inconclusive [inhibitor, single point]"
O=C1NC[C@H](Cc2ccc(O)cc2)N(CCc2cccc(F)c2)C1=O,inactive: -10.4%,
CCC(C)N(CCNC(=O)c1ccc2c(c1)NC(=O)c1ccccc1S2)C1CCCCC1 (configuration not stated),,active: 14.6 µM
COc1ccc(CCN=C(N)Nc2nc(C)cc(C)n2)cc1,,active: 7.31 µM
Cc1ccc(OCCCn2c(CO)nc3ccccc32)cc1,,"inconclusive [inhibitor, single point]"
COc1ccc(C2=NN(S(C)(=O)=O)C(c3cccs3)C2)cc1 (configuration not stated),inactive: -0.905%,
COc1ccccc1-n1c(SCC(=O)Nc2ccc(F)cc2)nc2c(c1=O)SCC2,,"inconclusive [inhibitor, single point]"
CCS(=O)(=O)N1CC(=O)N(c2cccc(Cl)c2C)C(C)(C(=O)NC2CCCCC2)C1 (configuration not stated),inactive: -25.1%,
O=C(c1cccc(F)c1)N(Cc1nc2ccccc2c(=O)[nH]1)C1CCCC1,,"inconclusive [inhibitor, single point]"
COc1ccc(CCNC(=O)CSc2nnc(-c3cccc(C)c3)o2)cc1OC,inactive: -23.6%,
N#CC1=CN(Cc2ccccc2)C=C(/C=N/Nc2ccccc2)C1,,"inconclusive [inhibitor, single point]"
Cn1c(=O)c2cc(NC(=O)Cc3ccccc3F)ccc2n1C/C=C/c1ccccc1,,"inconclusive [inhibitor, single point]"
COc1ccc(-c2nnc(SCc3ccc(C(=O)O)cc3)n2N)cc1,inactive: -4.32%,

Structure (SMILES),"activity change, negative = growth inhibition",Potency
CC(C)CSc1nnc2c3ccccc3n(C)c2n1,inactive: -10.4%,
COc1ccc(CCNc2nc(-c3ccccn3)cs2)cc1OC,,active: 16.4 µM
Cc1c(C(=O)Nc2cccc(S(=O)(=O)N3CCCC3)c2)oc2ccccc12,,"inconclusive [inhibitor, single point]"
CCN(CCCNC(=O)c1cc2cc3ccc(C)cc3nc2s1)c1ccccc1,,"inconclusive [inhibitor, single point]"
Cc1occc1C(=O)Nc1sc2c(c1C(N)=O)CCCCC2,,"inconclusive [inhibitor, single point]"
CC(C)Oc1ccc(C(=O)Nc2ncn[nH]2)cc1,inactive: 1.54%,
O=C(NCc1ccccn1)c1ccc(OC2CCN(Cc3ccc(F)cc3F)CC2)cc1,,"inconclusive [inhibitor, partial curve, poor fit]"
O=C(CCc1nnc(C2(c3ccc(Cl)cc3)CCC2)o1)N1CCCC(O)C1 (configuration not stated),inactive: 2.13%,
COc1ccc(N2CCN(C(=O)c3ccc(CS(=O)(=O)c4ccccc4C)o3)CC2)cc1,,"inconclusive [inhibitor, single point]"
Cc1cc(C)c2nc(SCC(=O)Nc3ccccc3N3CCOCC3)c(C#N)cc2c1,inconclusive: -30.4% [inhibitor],
CS(=O)(=O)N1c2ccccc2[C@@]2(Br)C[C@H]3C(=O)N[C@@H](Cc4ccccc4)C(=O)N3[C@@H]12,,"inconclusive [inhibitor, single point]"
COc1ccc(CNC(=O)C2CCN(S(=O)(=O)c3c(C)n[nH]c3C)CC2)cc1,inactive: 4.95%,
Cn1c(Cl)cnc1C1CC(=O)c2cc(Cl)ccc2O1 (configuration not stated),,active: 4.11 µM
COCCNC(=O)CCCN1C(=O)c2ccccc2Sc2ncccc21,,inactive
COc1cc(/C=N/NC(=O)c2ccc3ccccc3c2)ccc1Oc1ccc([N+](=O)[O-])cn1,,"inconclusive [inhibitor, single point]"
CC(C)CC1(C)NC(=O)N(CC(=O)Nc2ccc3c(c2)OCCO3)C1=O (configuration not stated),inactive: 7.31%,
OC1(c2ccc(Br)cc2)CN(c2ccccc2)C2=[N+]1CCS2 (configuration not stated),,"inconclusive [inhibitor, single point]"
CC1CCC(NC(=O)c2nn(C)c3c2CSc2ccccc2-3)CC1 (configuration not stated),,"inconclusive [inhibitor, single point]"
CCCSc1ccccc1C(=O)N1CCN(C(=O)c2ccco2)CC1,inactive: -8.38%,
COc1cccc(-c2cnc(C(O)c3ccc(F)c(C)c3)[nH]2)c1 (configuration not stated),,"inconclusive [inhibitor, single point]"
O=[N+]([O-])c1ccc(Oc2ccc(-c3cnc4ccccc4n3)cc2[N+](=O)[O-])cc1,,active: 10.3 µM
Cc1occc1C(=O)NCCCCc1ccccc1,inactive: -28.5%,
Cc1cccc2c(C(=O)N3CCN(c4ccccc4)CC3)cc(-c3ccncc3)nc12,,active: 2.59 µM
CC(NC(=O)c1ccccc1Br)c1ccc2c(c1)CCCC2 (configuration not stated),,"inconclusive [inhibitor, partial curve]"

Structure (SMILES),"activity change, negative = growth inhibition",Potency
COc1cc2ccccc2cc1C(=O)NC(=S)Nc1nnn(C)n1,,active: 23.1 µM
COc1ccc(-c2nc(CSCC(=O)N3CCN(c4ccc(OC)cc4)CC3)c(C)o2)cc1,,"inconclusive [inhibitor, single point]"
O=C(CCCN1C(=O)c2cccc3cccc(c23)C1=O)Nc1ccon1,inactive: 4.38%,
CCC1(C)Cc2ccccc2-c2nc(NCCO)n(-c3ccccc3)c(=O)c21 (configuration not stated),,active: 4.11 µM
COc1ccc(C2/C(=C(/O)c3ccc(C)cc3)C(=O)C(=O)N2CCCN2CCOCC2)cc1 (configuration not stated),inactive: 9.88%,
Cc1ccc(NC(=O)c2oc3ccc(S(=O)(=O)N(C)C4CCCCC4)cc3c2C)cc1Cl,,"inconclusive [inhibitor, single point]"
COc1ccc(/C=C\c2onc(C)c2S(=O)(=O)N2CCC(C(=O)NCc3ccco3)CC2)cc1,inactive: -3.03%,
CCOc1ccc(C2Sc3ccccc3NC3=C2C(=O)OC3)cc1 (configuration not stated),,"inconclusive [inhibitor, single point]"
O=C(Cc1ccccc1F)Nc1cccc(S(=O)(=O)N2CCCCC2)c1,,"inconclusive [inhibitor, single point]"
O=C1[C@H]2CCC=C[C@H]2[C@H](c2cccc(Br)c2)N1Cc1ccccc1,,"inconclusive [inhibitor, single point]"
CC1(C)OC(c2ccccc2)=C/C(=C/C=N/NC(=O)c2ccncc2)O1,,"inconclusive [inhibitor, single point]"
CCOC(=O)CNC(=O)N(C)[C@H]1C[C@H]2c3[nH]c4ccccc4c3CCN2C[C@H]1[C@H](C)O,inactive: -29.8%,
O=C(CCSc1nc(-c2ccco2)cc(C(F)(F)F)n1)N1CCN(c2ccccc2)CC1,,"inconclusive [inhibitor, single point]"
CC(C(=O)NC1CCCC1)N1CCN(S(=O)(=O)c2ccc(C(C)(C)C)cc2)CC1 (configuration not stated),,active: 20.6 µM
CCCCN(CCCC)CC(O)Cn1cc(/C=C/C(=O)c2ccccc2)c2ccccc21 (configuration not stated),,active: 10.3 µM
CSc1nc(Oc2ccc3ccccc3c2)c2ccccc2n1,,"inconclusive [inhibitor, single point]"
COC(=O)C1CCN(C(=O)c2cc(-c3ccc(Cl)s3)nc3ccccc23)CC1,,"inconclusive [inhibitor, partial curve]"
Cc1ccc(C(=O)N(Cc2nc(-c3ccc(C)cc3)no2)C(C)C)cc1,,"inconclusive [inhibitor, single point]"
CC(OC(=O)c1ccccc1OCC(=O)Nc1ccc(Br)cc1)C(=O)NC1CCCC1 (configuration not stated),,active: 8.91 µM
O=C1CCC(C(=O)N2CCN(c3cnccn3)CC2)CN1CCc1ccccc1 (configuration not stated),inactive: -12.7%,
CCN(CC)C(=O)C1CCCN(C(=O)c2cc(COc3ccc4ncccc4c3)on2)C1 (configuration not stated),,active: 16.4 µM
Cc1nnc(SCC(=O)Nc2ccc(Br)cc2)[nH]c1=O,inactive: -18.6%,
COc1ccc(CCNC(=O)COc2ccc([N+](=O)[O-])cc2)cc1,,"inconclusive [inhibitor, single point]"
CC(C)(O)C#Cc1ccc([C@@H]2C[C@H]3CN(c4ccccc4)C(=O)[C@]34CCCN24)s1,inactive: -23.8%,
